# ± gives the standard deviation of the averaged measurements. Some of the results follow.
# System: PfAP2-I AP2 domain 3 (GST-tagged)
# Experiment: gcPBM binding intensity (ln(normalized median fluorescence intensity)); higher = stronger DNA binding
# Summary of the method: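 Probes on an Agilent 4 × 180k array were primer-extended, double-stranded and 36 bp long, taken from intergenic genomic regions, with negative controls added. GST-tagged P. falciparum DNA-binding domains from E. coli, about 25 μg on average, were applied to the array for 1 h in 1× PBS containing 1% milk, 0.2 mg/ml BSA, 0.5% salmon testes DNA and 0.03% Triton X-100. Binding intensity, obtained after Alexa488 anti-GST antibody detection and a 488 nm scan, is the highest Masliner-normalised natural-log median intensity across replicate spots of either probe orientation.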
row,Sequence,gcPBM binding intensity (ln)
1,ACTTCATAAACATTTTGTACGTATGTATCTTTTTAT [XGTACX_site7012],8.03 ± 0.59
2,TTAATATGGAAATGTTGTACATTTCTTGAAGCATTC [XGTACX_site525],7.61 ± 0.54
3,TCCTTAGAAATATTGATCATAAACTGGAAAGGTATA [XGTACX_negctrl_site354],7.54 ± 0.59
4,TGTATTATTAATATTTGTACGTAATAATAAAAACAT [XGTACX_site3716],8.07 ± 0.39
5,TGGAAACAAAAACACACACACAAAAAAAAAAAAAAA [CACACA_site3209],8.06 ± 0.47
6,GAAATATATAAATTGACACACACATATATACATATA [CACACA_site8323],7.7 ± 0.41
7,CATAAATACAGATATACACACATATATATATATATA [CACACA_site4528],9.44 ± 0.69
8,TTTAACATAAATTAAACACACAATAAAATACATTAA [CACACA_site6699],7.58 ± 0.61
9,ATAATACATATAGAAGGTACACTATTATTTTCCTGA [XGTACX_site903],7.71 ± 0.45
10,ATTATCCATGCATTTACACACACACTAATAAAAATT [CACACA_site9358],8.85 ± 0.43
11,ATATATTTCTGTCAAGCACACATAATATTAATATAT [CACACA_site7993],8.24 ± 0.38
12,AATGATACTTAGGGGCATGTCTCTGGGGGCATAACC [CACACA_negctrl_site591],9.3 ± 0.13
13,TACAAATATAGATGCACACACATATAGGTATATGTG [CACACA_site7439],8.48 ± 0.099
14,TATATATAATTATAAGAACACACATATATATATATA [CACACA_site8786],9.11 ± 0.099
15,GTTATAAACAAAATAAATATATGAATATATAATAAT [XGTACX_negctrl_site96],7.46 ± 0.5
16,CATATTATATTTTCATGTACACATAACATATTTATA [XGTACX_site4787],8.04 ± 0.24
17,ATATAGTAAATGTTCACACATACAAATATATATATA [CACACA_site5518],8.87 ± 0.17
18,AAGTTTTCTTAAAGCTGTACTTTTTAAAAATAAAAT [XGTACX_site7716],7.59 ± 0.54
19,TAAATATATATATATTGTACAAAACAAATGTGAATT [XGTACX_site696],8.09 ± 0.57
20,TTAAAAATATTATGTACACACATTTTAGATATTTGT [CACACA_site1846],7.71 ± 0.45
21,TAATTAAAATCATATACACACCCATATATATATATA [CACACA_site8524],9.35 ± 0.33
22,TCCTAATATTTGTCAAATTTCAAAATAAATAAAATG [XGTACX_negctrl_site540],7.52 ± 0.48
23,TTAAAAAAAAAAAAAAGTACATAAGTATATATAATA [XGTACX_site4295],7.61 ± 0.57

row,Sequence,gcPBM binding intensity (ln)
1,CATATTTTTTCTTAAACACACACATATATATATATA [CACACA_site8920],9.34 ± 0.38
2,TATATATATATGTACACACACACATATAAATAAATA [CACACA_site443],9.19 ± 0.21
3,TAAAAGGGGATATATGAACACACAAAAAAAAAATAT [CACACA_site8940],7.97 ± 0.66
4,TAAATGTTTCTCAAAAGTACACATGTGATATTTCTT [XGTACX_site2065],7.73 ± 0.21
5,ATATTAAGTTTTATTACACACTCTCAATTTTTATTT [CACACA_site4206],8.06 ± 0.57
6,AATACAATAAAATAGTGTACATATATATTATGTATA [XGTACX_site8258],7.63 ± 0.27
7,ATATATATATATATTTGTACGTATTATGTATTTTTT [XGTACX_site3530],9.3 ± 0.16
8,TTAAAATATGATATATGTACATAATTACTAAAAACA [XGTACX_site276],8.11 ± 0.32
9,GAATAAATTAAAAACGCATGTATCATTACTACATAA [TGCATGCA_site111],7.36 ± 0.48
10,TTTATATTATACTATACATGCATATAATAAAGGTCA [TGCATGCA_site934],7.8 ± 0.6
11,AATAGAATAATCCTTACACACACACGCGCACGAATA [CACACA_site6365],8.03 ± 0.79
12,ATTTTATTTTTTTGTGATAATTGATTTATATATTGT [TGCATGCA_negctrl_site563],7.57 ± 0.54
13,TATATATTACATTGTTGTACATATATATTATATATA [XGTACX_site60],7.61 ± 0.3
14,ATTATTTCTTTGTGATGTACAAATAAACATGTTGGT [XGTACX_site5636],7.86 ± 0.57
15,ATATATATTTCTTAAAGTACATAATAATAAAAATAT [XGTACX_site8981],7.79 ± 0.44
16,AAAGCACCCAGGCACACACACAAAGGAAAAGAAAAA [CACACA_site232],7.95 ± 0.49
17,ATAATTATTAAGAGAACATGCAAAATATATATGTTT [TGCATGCA_site503],7.68 ± 0.79
18,TTTTAATAAACAAAACGTACACATTATTATTATATA [XGTACX_site335],7.79 ± 0.14
19,TTTGTAGTTTGCACATGTACACATTTCAAAATAAAG [XGTACX_site7568],8.88 ± 0.11
20,TTTTTTTTTTTGTGGGTGCGTTTATAAAAACAGGAA,10.8 ± 0.67
21,TTTTTTTCTTGTTTTAAATAATATACTGGAAAAAAA [CACACA_negctrl_site585],7.57 ± 0.38
22,AGAGAGAAAGTTATAACATGCAACAATTTTTAGAAC [TGCATGCA_site96],8.05 ± 0.83
23,AATATATACATATATTGTACATATAGTTTCTTGCAT [XGTACX_site7871],7.62 ± 0.59

row,Sequence,gcPBM binding intensity (ln)
1,TTTCCATATTGTGGATGTACGTTTTGAGGTTTTTAC [XGTACX_site3362],7.8 ± 0.29
2,ATTTATCCAAAAAAATGTACAGGATAATTTGTTCAT [XGTACX_site7737],7.61 ± 0.53
3,TATTATGCCTTTAATATACACACTAATATTTTTTTG [CACACA_site2045],7.79 ± 0.56
4,CATAATACCTATAACACACACAATTATACATAAACT [CACACA_site7506],7.82 ± 0.55
5,TATAAAAATTAATATTGTACGTTTTATGAAAATAAA [XGTACX_site8237],7.71 ± 0.16
6,GGGTTCAATTTAAAGAGTACAAAAAATGTAGGTCAT [XGTACX_site5290],8.02 ± 0.7
7,TTTTCATAAAATCATTGTACATTTATCGTATATTAA [XGTACX_site3855],7.72 ± 0.45
8,ATATTGTAAGTAAACACACACACATATATATGTATA [CACACA_site8124],7.72 ± 0.62
9,AAAATATCTTATATATGTACATATTTATATTTATAT [XGTACX_site6027],7.64 ± 0.42
10,TTGTTTTTTTTTGGCTGTACGTTCATAAATTTTTTT [XGTACX_site4165],8 ± 0.52
11,AAAAAAAAAAAAAAAACACACAGAACAATATATAAA [CACACA_site4698],8.74 ± 0.38
12,TTTTTTATAAAATTTTTTTTTTAAAATATTAAAACT [XGTACX_negctrl_site240],7.33 ± 0.45
13,AAGCTATATATAGGCAGTACTTTGTAAGTGTAGATA [XGTACX_site8365],7.89 ± 0.47
14,TTTCTAATTCTTAGTGGTACACAGTTCTGCTGATAT [XGTACX_site2391],7.67 ± 0.55
15,ATATGTCACTTGTATACACACATATAGATTTCAATC [CACACA_site7519],8.05 ± 0.67
16,TATATGCATATACATACACACATAACACATACGTTT [CACACA_site3832],7.94 ± 0.49
17,TATTTGTTGTGAGTCACACATATATATATATATATA [CACACA_site4240],9.4 ± 0.49
18,GTTAAAATTGGGGACGCATGTTCCTTTCCTTTTTTT [TGCATGCA_site1002],7.68 ± 0.48
19,AATATATGTATATATTTTTTTTTTTCCCTTACAAAT [GTGCAC_negctrl_site428],7.36 ± 0.71
20,TTATAAATGTAACGATGTACTTTTAAAAGTTTCCTT [XGTACX_site109],7.66 ± 0.16
21,GGAATGGTACATGATACACACACGCACATATATATA [CACACA_site5825],8.34 ± 0.86
22,TATATTAAACAATATACACACATTAATGTATACATA [CACACA_site2755],7.68 ± 0.45
23,ATATAATAGTTATATTGTACATAAATTATACACCTT [XGTACX_site628],7.97 ± 0.49

row,Sequence,gcPBM binding intensity (ln)
1,ATACGCACACATATATGTACATATTGTATATATATA [XGTACX_site3962],8.74 ± 0.34
2,TATAAACACCCATATAAACACACATATAAACCAACA [CACACA_site8790],8.19 ± 0.099
3,ACAATTTACACTTAAACACACAAAAAAAAATTATAT [CACACA_site2065],7.87 ± 0.54
4,ACATATATATTCATATGTACATATACATACATACAT [XGTACX_site4563],8.84 ± 0.4
5,AAGGTAGAAATATGTTGTACGGTTTGGAGGAAGCAA [XGTACX_site1105],8.12 ± 0.49
6,GCATCGATCAAACATACACACATGGTTAATAAAAAT [CACACA_site8651],7.8 ± 0.59
7,TGTTTTATTTTATTAGTGCATTTTTATTTATAATAG [GTGCAC_site9453],9.77 ± 0.2
8,TTAAAAAAAAAACACACACACATACACATATATATA [CACACA_site3299],8.31 ± 0.64
9,TTTTTATATTTTTGCACACATTCTTTACTCTTCAAA [CACACA_site2210],9.87 ± 0.12
10,TATATATATGGACACACACACATATAAATAAATAAA [CACACA_site4406],8.01 ± 0.69
11,ATAATTAATAAATAATGTACATATATATTATATTTT [XGTACX_site8546],7.55 ± 0.43
12,TGTGAAGTACCGAATGTGCACTGTGTGTGTTCTTTT [GTGCAC_site9613],10.12 ± 0.014
13,TTTTTTTTTTTTTTTTTTTCTATTTTACTGTTTCGT [CACACA_negctrl_site850],8.02 ± 0.4
14,TTACCGTAAAAATTTTGTACATAAAATAATATATAA [XGTACX_site532],7.92 ± 0.35
15,GATATAAAATATTGGTGTACTTTTTTTTTTTTTTTT [XGTACX_site7174],8.76 ± 0.4
16,GTATGTGTGTCAAGTCGTACTTACCTTTAAATTTTT [XGTACX_site2507],8.08 ± 0.55
17,CACATACATATATATACACACAAATATATATACACA [CACACA_site8164],7.88 ± 0.42
18,ACCATGAAAATATTATGTACATATGTATTATATATA [XGTACX_site408],7.79 ± 0.35
19,GAGTGAGCTAATAAAAGTACGTAATAAACAAACGCA [XGTACX_site131],7.81 ± 0.65
20,ATAGCTGTATTTAATACACACAAAACTTTCATTCCA [CACACA_site5868],7.95 ± 0.51

# Reference: the supplement of paper PMC11417369
